Experiment [1] addresses ropporin full-length open reading frame, Gal4 fusion, pGBKT7-ropporin (mouse) (UniProt Q9ESG2). Put plainly: condition: only on high stringency SD/-Ade/-His/-Leu/-Trp medium; two-hybrid; Matchmaker Gal4 System 3, yeast AH109, pGADT7 and pGBKT7 fusions; growth on high stringency SD/-Ade/-His/-Leu/-Trp plates with X-alpha-Gal, 30°C, 3-5 days.
The target of experiment [2] is T1, AKAP3 full-length open reading frame, Gal4 fusion, pGBKT7-mAKAP3 (mouse) (UniProt O88987).
T1 sequence: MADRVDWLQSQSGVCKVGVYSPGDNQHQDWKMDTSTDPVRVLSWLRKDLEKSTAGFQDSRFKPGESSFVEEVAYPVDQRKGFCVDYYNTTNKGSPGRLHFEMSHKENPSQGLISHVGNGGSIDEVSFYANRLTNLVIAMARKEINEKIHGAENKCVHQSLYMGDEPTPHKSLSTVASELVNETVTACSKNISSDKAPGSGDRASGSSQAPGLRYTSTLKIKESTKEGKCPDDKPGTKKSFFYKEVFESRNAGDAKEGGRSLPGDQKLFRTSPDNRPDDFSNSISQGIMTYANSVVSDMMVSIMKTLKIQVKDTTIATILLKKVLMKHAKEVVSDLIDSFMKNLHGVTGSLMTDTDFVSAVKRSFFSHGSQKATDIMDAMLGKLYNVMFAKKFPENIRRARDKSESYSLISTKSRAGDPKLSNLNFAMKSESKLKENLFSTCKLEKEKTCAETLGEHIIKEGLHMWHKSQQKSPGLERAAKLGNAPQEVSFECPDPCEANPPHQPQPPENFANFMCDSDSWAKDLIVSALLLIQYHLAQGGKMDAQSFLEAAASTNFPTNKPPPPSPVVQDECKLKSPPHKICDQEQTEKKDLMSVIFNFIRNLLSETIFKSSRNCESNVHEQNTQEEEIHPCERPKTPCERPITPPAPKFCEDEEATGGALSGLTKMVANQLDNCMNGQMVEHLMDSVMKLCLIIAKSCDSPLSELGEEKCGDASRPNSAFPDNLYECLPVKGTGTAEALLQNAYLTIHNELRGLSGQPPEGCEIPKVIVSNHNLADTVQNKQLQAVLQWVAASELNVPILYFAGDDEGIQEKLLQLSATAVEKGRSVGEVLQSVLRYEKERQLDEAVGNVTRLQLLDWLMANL
The experiment can be described thus: two-hybrid; Matchmaker Gal4 System 3, yeast AH109, pGADT7 and pGBKT7 fusions; growth on high stringency SD/-Ade/-His/-Leu/-Trp plates with X-alpha-Gal, 30°C, 3-5 days.

Chains of the proteins cited; added tags and fusions are not shown.
UniProt Q9ESG2: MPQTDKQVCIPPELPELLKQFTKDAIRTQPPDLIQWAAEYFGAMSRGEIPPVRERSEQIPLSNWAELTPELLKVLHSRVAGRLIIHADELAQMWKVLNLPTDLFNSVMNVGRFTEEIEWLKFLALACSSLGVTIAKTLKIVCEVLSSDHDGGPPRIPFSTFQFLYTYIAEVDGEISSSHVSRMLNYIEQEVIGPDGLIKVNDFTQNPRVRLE

Experiment [3] deals with ropporin full-length open reading frame, Gal4 fusion, pGBKT7-ropporin (mouse) (UniProt Q9ESG2). The experiment can be described thus: two-hybrid; quantitative alpha-galactosidase assay of culture supernatants of the co-transformed yeast (p-nitrophenyl-D-galactopyranoside, 30°C, 60 min).
Experiment [4] deals with T1, AKAP3 full-length open reading frame, Gal4 fusion, pGBKT7-mAKAP3 (mouse). The description is as above.
For experiment [5], the target named is ropporin full-length open reading frame, Gal4 fusion, pGBKT7-ropporin (mouse) (UniProt Q9ESG2). The experiment can be described thus: two-hybrid; Matchmaker Gal4 System 3, yeast AH109, pGADT7 and pGBKT7 fusions; growth on medium stringency SD/-His/-Leu/-Trp plates, 30°C, 3-5 days.
For experiment [6], the target named is T2, AKAP3 (mouse (endogenous in mouse sperm)) (UniProt O88987).
T2 sequence: T1 sequence
The experiment can be described thus: co-IP; method 2: mouse sperm extracted in Celis buffer without DTT, dialysed against PBS, precipitated with anti-AKAP3 polyclonal or anti-AKAP4 monoclonal antibody; 2-D Western blot with anti-CABYR-A or anti-CABYR-B; pre-immune serum or normal mouse IgG as control.

Results are given in words; binding and its absence hold for the method and conditions named. For some assays here: Binding seen in cells or lysates may run through a third protein. Some entries that bind do so weakly or less than the wild type. For some assays here: Sequences can lack the tags named with a protein.

B1: truncated CR-A (TCR-A) without the RII-like domain, Gal4 fusion, pGADT7-mTCRA (domain or fragment, UniProt Q9D424 51-453)
chain: NSSLDIKDLIKQFHQMKVEKWAEGVTVEKKECIKEPIKPPPVPCKPTHMEKSTDTEEDNVAGPLFSNKTTQFPSVHAEVQSEETSEGARGPSDKPTTPKTDYTPPSSPPPAPVSAEYAYVPADPAQFAAQMLGNVPSTYSEVLMVDVATSTPAVPQDVLSAEFAEEVVLSAPLVCSGETVEVQVVSKTSAQVVVGPVSEAEPPKASSAPLQGEQEPPAHEAPDTQVTSASRISSIYNDVPVNEGVVYVEEIPGYIVIPFTDHDQVACVKEIEQSPPGSPKAVEPKTKISIESLKTVQVEENSQHKSSVHVEAEATVLLSNTALDGQPEVPAEPLDAEGFFKVASENSLHLETEIVIINPDDPGQEESGGNAAPHSSGDPFPPAPGGLTEPEMQPDGEAAPEQV
Turning to B1, the binding result in experiment [1] was “no binding”; in experiment [2] it was “no binding”; in experiment [3], “binds weakly”; in experiment [4], “no binding”; in experiment [5], “binds weakly”.

B2: full length CABYR-A (CR-A) Gal4 fusion, pGADT7-mCRA (protein, UniProt Q9D424 1-453)
chain: MISSKPRLVVPYGLKTLLEGVSRAILKTNPTNITQFAAVYFKELIVFREGNSSLDIKDLIKQFHQMKVEKWAEGVTVEKKECIKEPIKPPPVPCKPTHMEKSTDTEEDNVAGPLFSNKTTQFPSVHAEVQSEETSEGARGPSDKPTTPKTDYTPPSSPPPAPVSAEYAYVPADPAQFAAQMLGNVPSTYSEVLMVDVATSTPAVPQDVLSAEFAEEVVLSAPLVCSGETVEVQVVSKTSAQVVVGPVSEAEPPKASSAPLQGEQEPPAHEAPDTQVTSASRISSIYNDVPVNEGVVYVEEIPGYIVIPFTDHDQVACVKEIEQSPPGSPKAVEPKTKISIESLKTVQVEENSQHKSSVHVEAEATVLLSNTALDGQPEVPAEPLDAEGFFKVASENSLHLETEIVIINPDDPGQEESGGNAAPHSSGDPFPPAPGGLTEPEMQPDGEAAPEQV
Consider B2, for which the binding result in experiment [1] was “no binding”; in experiment [2] it was “binds”; in experiment [3], “binds weakly”; in experiment [4], “binds”; in experiment [5], “binds weakly”.

B3: 80 kDa CABYR-A only variant (protein, UniProt Q9D424 1-453)
chain: B2 chain
With B3, in experiment [6], the binding result is reported as “binds”.

(Values after PMC3398308.)
